# The list shows a part of the results.
# T1: UNK ZnF1-3 (human, UniProt Q9C0B0 31-174)
# T1 sequence: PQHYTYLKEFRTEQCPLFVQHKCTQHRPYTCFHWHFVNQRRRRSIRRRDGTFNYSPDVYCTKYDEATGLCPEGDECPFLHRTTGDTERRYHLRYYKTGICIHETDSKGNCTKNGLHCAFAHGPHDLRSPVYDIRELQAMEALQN
# B1: chr5:72798818:72798819:+_ENSG00000145741_ENST00000335895|hu_mus|FALSE|FALSE (ssRNA)
# RNA: GGGAGUUCUACAGUCCGACGAUCGAUGCUGGGAAGCAUUUCUGUCAGCUGCUUUGUCUCAGCGUGGCCUGUAAUGGUGAAGGUGUUUGCUGCCAGGGAUGCCUGAACUUUAGGGUUGUUAAAAUGGAUCACUGUUCCUUGGUUCAACAGAGGAUUGAGCAUCA
# B2: chr6:107361193:107361194:+_ENSG00000130349_ENST00000311381|hu_mus|FALSE|FALSE (ssRNA)
# RNA: GGGAGUUCUACAGUCCGACGAUCUUUCGUAGAUUUUUUGGAGUUUAUAUUGCUUUUGAGUCGUAUAGAAAAUGGAAAAUAACAUUCUGGAGAUACUAAAAGCUCUGGGAGUCGCAGAGAGAAAAUGUUACGGAAAAGUGUUUUCAACAGAGGAUUGAGCAUCA
# B3: chr2:128036804:128036805:-_ENSG00000163161_ENST00000285398|hu_mus|FALSE|FALSE (ssRNA)
# RNA: GGGAGUUCUACAGUCCGACGAUCGACAAUAAUCUUGUCAUUCCUCCUUUCAUGAAACUUGAUCAGAAACUGGCAGGCUCUGAAUUUGUUGGGAUUCAUGGUGUACAACAGGAUCCGUUUCUUUGUUUUGAUUGCCACAUACUCCAACAGAGGAUUGAGCAUCA
# B4: chr2:48026839:48026840:+_ENSG00000116062_ENST00000540021|hu_hu|hu_hu_hu_mus_False|1_88 (ssRNA)
# RNA: GGGAGUUCUACAGUCCGACGAUCAUAGUGAGCCACUAGCGUCCUAAAUCUCGAACAGUGGCGGUCAUCCGAAAACUGGCCGAUGAAAAACUUGCCCAGUGAAGUGUCCACAAAGCAAACACCAUACACACGAGUGUGGCCAGACAACAGAGGAUUGAGCAUCA
# B5: chrX:153667120:153667121:+_ENSG00000203879_ENST00000447750|hu_hu|FALSE|FALSE (ssRNA)
# RNA: GGGAGUUCUACAGUCCGACGAUCAUUCCAGUCUCGGCCUCGGCCCAUCGACUCAGGGGGCCCCUCCAGCAACUGAAAACGCUUAUACAGCUCCUCCAGGGGUGUGAUGGAGGAGCUCUCGCCCCCGUAGUAGGGGUUCCGGUCCAACAGAGGAUUGAGCAUCA
# B6: chr12:39756943:39756944:-_ENSG00000139116_ENST00000544797|hu_mus|hu_hu_hu_mus_False|28_108 (ssRNA)
# RNA: GGGAGUUCUACAGUCCGACGAUCGGUUUGGCUAUUACCCCCAAGGGAAUCCUGCAAGAGUCUUGUCAGCUUAGAGUCUCUGUAAGGGACAUGGGUGGCUCUCUUGCUCUUGUCUCCCAAGGCGCUGAUUACAUUCCCAAGAGCCAACAGAGGAUUGAGCAUCA
# B7: chr11:77340908:77340909:-_ENSG00000074201_ENST00000525064|hu_hu|hu_hu_hu_mus_True|8_98 (ssRNA)
# RNA: GGGAGUUCUACAGUCCGACGAUCGUUUGGAUCCCUGGAUAAUGCAUGUAAACUAAUGGUGGGGUAUUCCAGUGAGAAUCCUAAUCCCGAACCAUCUAACCAGGACAGGCGGCUCUCCGCGAUGUAAAGGGUACCAGUGCCGAGCAACAGAGGAUUGAGCAUCA
# B8: chr7:65705844:65705845:+_ENSG00000169902_ENST00000304842|hu_mus|hu_hu_hu_mus_False|28_58 (ssRNA)
# RNA: GGGAGUUCUACAGUCCGACGAUCAAACGGAUCUUUGUUACAUAAAUAAGGUGCCGGCUCCCCAUGUUUAACAAUGAUUUCUAGUAAGAAGGCUUGCAUGGCAGAAUCCAGCACUUCAUCUGUGACACCCGCCUCAUCCAAGCGCAACAGAGGAUUGAGCAUCA
# B9: chr1:220276048:220276049:+_ENSG00000067704_ENST00000302637|hu_hu|hu_hu_hu_mus_True|18_18 (ssRNA)
# RNA: GGGAGUUCUACAGUCCGACGAUCGCAAAUUGCCUGGUUGGCGGGAAUUGUCCAAGGCUGGGUGGUCCAAACUAAAACGCUAACAGGGGAUGAGGCAUCUGUAAGAGACUCCAACUUUGGAGAAGGCCUCAGGAGGGGGAAUCUCAACAGAGGAUUGAGCAUCA
# B10: chr17:49043493:49043494:-_ENSG00000008294_ENST00000510283|hu_hu|FALSE|FALSE (ssRNA)
# RNA: GGGAGUUCUACAGUCCGACGAUCUUUGAUUUGUUCAUAAUAUACUGAAGUUACCUAUAACACUGGUGCAGUAACACAGCUAGUUCCUCUGUAUUGUUAUGGUAGAACGGAUUUUGUAAUAUAAAGUUAACAGGAAAAAAUGCUCAACAGAGGAUUGAGCAUCA
# B11: chr12:112501303:112501304:+_ENSMUSG00000021277_ENSMUST00000021706|mus_hu|FALSE|FALSE (ssRNA)
# RNA: GGGAGUUCUACAGUCCGACGAUCACCAGCUCUACGCACAACGUUGCUUUCGGAGACCGUUGACGGCAUGCAGCAAGAUGACGGGAUGGAGAAACACACCUGCGGGCCUCCCUCAGCAGUCACCCGCCCACCCCUGACAUGGAGCAACAGAGGAUUGAGCAUCA
# B12: 119844259_119844701_2432_CDS_ENSMUSG00000033902_ENSMUST00000066058|mouse|control|control (ssRNA)
# RNA: GGGAGUUCUACAGUCCGACGAUCGAGAUGUUUGCAAUCGUUACUAAAUUUCAUGCCAGUGACAAUCUCUGAGUGGCCAAACAUGGUGGCCACACACUCGCCUGAGGAGAAGUCAAAAAUGGAGAGAUUCUUAUCGGAACAGCUCAACAGAGGAUUGAGCAUCA
# B13: chr7:135840685:135840686:-_ENSMUSG00000048170_ENSMUST00000057557|mus_hu|FALSE|FALSE (ssRNA)
# RNA: GGGAGUUCUACAGUCCGACGAUCGGCUGACCCUGUUUCCUUGGUUAACAAUUUCAAUUUAGGCCUUAUAGGAAAAAACGUAAGGGAUCCUUUAUCUGCCUCCAACUAGGUAAGUUAUUUGAUACCACUGACAGCUUAAAAAGUCAACAGAGGAUUGAGCAUCA
# B14: chr6:79679595:79679596:-_ENSG00000146247_ENST00000275034|hu_mus|motif|central (ssRNA)
# RNA: GGGAGUUCUACAGUCCGACGAUCUAUAUUCCAUCGUCUAUACUUUGCAUCAUCAAAUUGUUGUCUCAAGACUAGAAAAUCGGUGACGUCAGGCAUAUCAUGGUAUUUCAUGGUAAAUGAUCCACCGGUCAGUUUGCCAGUAUCCAACAGAGGAUUGAGCAUCA
# Biological target: T1, UNK ZnF1-3
# Experiment: nsRBNS (natural sequence RNA bind-n-seq); RBNS binding buffer (assumed for nsRBNS): 25 mM Tris pH 7.5, 150 mM KCl, 3 mM MgCl2, 0.01% Triton X-100, 500 ug/ml BSA, 20 U/ml SUPERase-In, 4 C; UNK is unkempt and MSI1 is Musashi-1; names of the RNAs are library labels; protein concentration not given here; high values mean tight binding
row,Binder,binding signal [enrichment R]
1,B1,0.581
2,B2,1.15
3,B3,0.804
4,B4,1.14
5,B5,0.662
6,B6,0.827
7,B7,1.27
8,B8,0.455
9,B9,2.49
10,B10,1.29
11,B11,1.36
12,B12,1.03
13,B13,0.989
14,B14,0.645

# Reference: PMC12136788
